The values below come from ChEMBL document CHEMBL5308541, “MAIP: An Open-Source Tool to Enrich High-Throughput Screening Output and Identify Novel, Druglike Molecules with Antimalarial Activity” (ACS Med Chem Lett, 2023).

Out of some 150,000 compounds screened, about 540 (0.36%) showed an effect of 50% or more. Some of the results follow.

For the assay, the system named is Plasmodium falciparum. Kind of assay: Primary screen in NF54 nanoGlo assay, in single point, at 2uM, 72h; a lower Z score goes with more inhibition. Type of assay: functional, Erythrocyte. Particulars: timepoint 72 hour.
For the molecule `Cc1noc(-c2cccc(NC(=O)c3ccccc3-c3ncc(-c4ccccc4)o3)c2)n1`, the “% Inhibition” value is on record as -8% and the Z score amounted to 1.16.
For `CN(C)C1(CNc2nc(C(F)(F)F)nc3cc(F)ccc23)CCCCCC1`, the “% Inhibition” value came to 61% and the Z score is listed as -9.21.
For `NCC1(O)CCN(c2ccnc3cc(F)c(Cl)cc23)CC1`, the “% Inhibition” value is on record as 95% and the Z score was -20.37.
`CC(C)c1n[nH]c2c1CN(C(=O)CCn1ccc(=O)[nH]c1=O)CC2`: the “% Inhibition” value is -12% and the Z score turned out to be 2.1.
For `CN(C)CCN(C(=O)c1c[nH]c2ccccc12)c1nc2c(C(F)(F)F)cccc2s1`, the “% Inhibition” value is recorded as -8% and the Z score is reported as 1.26.
Regarding `CO[C@@H]1C[C@H](CNc2nc3cc(F)ccc3o2)N(c2ccncn2)C1`, the “% Inhibition” value was -7% and the Z score came out at 1.43.
Consider `Cc1ccc(-c2cc(Nc3nc4cc(S(=O)(=O)N(C)C)ccc4o3)nc(-c3ccccc3)c2)cc1`, for which the “% Inhibition” value was -17% and the Z score is reported as 3.65.
On the same counts, the results for `Nc1ccc(-c2nc3c(F)cccc3[nH]2)cc1` are -6% and 1.26.
Turning to `CC/N=C(\NCC)NCCN1CCN(C)CC1`, the “% Inhibition” value was -11% and the Z score was 2.35.
The matching figures for `CN1CCN(C[C@H]2CCCN(c3cc(C(F)(F)F)nc(N4CCCC4)n3)C2)CC1`: 2% and -0.31.
For the molecule `CC(C)N(C)c1ccc(CN[C@H]2CCN(c3ccccn3)C2)cn1`, the “% Inhibition” value is -2% and the Z score is given as 0.44.
On the same counts, the results for `CC1(C)CC(Nc2ncnc(-c3ccccc3)n2)CC(C)(C)N1` are 8% and -1.55.
Regarding `CC(=O)N1CC2=C(C1=O)[C@@H](c1cccc(OCc3cccnc3)c1)c1c[nH]c3cccc(c13)N2`, the “% Inhibition” value is given as -11% and the Z score stood at 1.82.
Take `c1cc(CNc2ccc3nccnc3n2)cc(Cn2cncn2)c1`: the “% Inhibition” value was -7% and the Z score is given as 1.45.
For the molecule `CCCN1CCC(CC(=O)N[C@H]2CCCN(C3CCCCCC3)C2)CC1`, the “% Inhibition” value is -14% and the Z score is recorded as 2.44.
For `Fc1ccc(-c2noc(-c3cccc(Nc4nccc(C(F)(F)F)n4)c3)n2)nc1`, the “% Inhibition” value is -7% and the Z score stood at 1.23.
The matching figures for `Cc1ccc(NC(=O)C(=O)N(C)CCC(C)(C)O)c(C)c1`: -3% and 0.55.
On the same counts, the results for `Cc1nc(O)c(Cl)c(-c2ccc([C@H](C)N(C)C)cc2)n1` are 9% and -1.86.
Turning to `c1cc(N2CCC[C@H](NCc3cnc4cnccn34)C2)ncn1`, the “% Inhibition” value was -2% and the Z score is 0.4.
With `Cc1n[nH]c(C)c1S(=O)(=O)N[C@@H](CC(=O)O)Cc1ccccc1`, the “% Inhibition” value is on record as -1% and the Z score is given as 0.18.
For the molecule `N#CCNC1CCCCC1C(F)(F)F` (centres undefined), the “% Inhibition” value was 0% and the Z score is reported as -0.01.
The matching figures for `CCC(=O)N1CC[C@H](Nc2cncc(-n3ccnc3C)n2)C1`: -1% and 0.2.
`CCn1cnc2c(Nc3cc(F)cc(N(C)C)c3)ncnc21`: the “% Inhibition” value was 9% and the Z score is -1.71.
For `CC(=O)N(C)c1ccc(NC(=O)CN2CC(N3CCCC[C@@H]3C)C2)cc1`, the “% Inhibition” value is -8% and the Z score stood at 1.63.
For `FC(F)(F)c1cnc(Nc2ccc3[nH]ncc3c2)c(Cl)c1`, the “% Inhibition” value stood at 4% and the Z score is listed as -0.69.
In the case of `O=C(NCCc1c(C(F)(F)F)[nH]c2ccccc12)[C@@H]1C[C@H]1C1CCNCC1`, the “% Inhibition” value is listed as 0% and the Z score came out at 0.
As for `c1coc(CN2CCC(NCCCn3ccc4ccccc43)CC2)c1`, the “% Inhibition” value was -8% and the Z score is 1.28.
Turning to `CN(C)C(C)(C)CNc1ccc(C(=O)C2CC2)cc1S(N)(=O)=O`, the “% Inhibition” value was -9% and the Z score amounted to 1.86.
Take `CN(C)c1nc(NCC2CCN(CC3CC3)CC2)ncc1F`: the “% Inhibition” value was -9% and the Z score is recorded as 1.99.
The matching figures for `Cn1cc(-c2cncc(CNC(=O)c3ccc4cc[nH]c4c3)c2)cn1`: -11% and 2.25.
Consider `COc1cc(OC)c2cc(CN[C@H](CO)Cc3ccc(O)cc3)cnc2c1`, for which the “% Inhibition” value is on record as -10% and the Z score came out at 1.74.
Regarding `COC(=O)c1cccc(NC2CCN(C(=O)Cc3ccc4cn[nH]c4c3)CC2)c1`, the “% Inhibition” value is -12% and the Z score is on record as 2.
For `CS(=O)(=O)C1CCC(CNc2cc(-n3ccnc3)ncn2)CC1` (centres undefined), the “% Inhibition” value is 7% and the Z score is -1.58.
With `CC(C)Nc1nc(NCCO)nc(N2CCC(N3CCO[C@@H](C)C3)CC2)n1`, the “% Inhibition” value was -6% and the Z score is recorded as 0.93.
For the molecule `Nc1nc2c(c(NCc3ccccc3-n3cncn3)n1)CCCC2`, the “% Inhibition” value was -2% and the Z score was 0.28.
The matching figures for `COc1cc2nc(N3CCC[C@H](c4nc(N(C)C)no4)C3)nc(N)c2cc1OC`: -3% and 0.69.
As to `CS(=O)(=O)NC1C(NC(=O)Cn2ccc(=O)[nH]c2=O)C2CCOC21` (centres undefined), the “% Inhibition” value was -10% and the Z score was determined as 1.71.
In the case of `O=C(NC1CCCCC1O)c1ccc(-c2cccc(CN3CCCC3)c2)cc1` (centres undefined), the “% Inhibition” value was -4% and the Z score was found to be 0.95.
On the same counts, the results for `O=C(Nc1ccccc1)c1ccc(N2CC[C@H](NCc3cccc(O)c3)C2)nc1` are -1% and 0.12.
Turning to `Cn1ncc2c(N)nc(N3CC4CN(CCCn5cccn5)CC4(CO)C3)nc21` (centres undefined), the “% Inhibition” value is given as 1% and the Z score was -0.25.
For the molecule `C[C@@H](C(=O)N1CCC(Oc2cnccn2)CC1)N1CCN(C)CC1`, the “% Inhibition” value is reported as -4% and the Z score is recorded as 0.59.
For `c1cnn(CCCN2CCC(c3nnc[nH]3)CC2)c1`, the “% Inhibition” value is on record as 1% and the Z score is recorded as -0.13.
Consider `Cc1cc(C(=O)N2CCNC(=O)[C@@H]2C(C)C)c2cc(Cl)ccc2n1`, for which the “% Inhibition” value is -11% and the Z score was 2.13.
Take `c1ccc(N[C@H]2CCN(c3ccnc(N4CCCCC4)n3)C2)cc1`: the “% Inhibition” value is given as 9% and the Z score was -1.89.
On to `CN1C[C@@H](n2cnc(-c3ccccc3)c2-c2nc3ccccc3[nH]2)CCC1=O`, for which the “% Inhibition” value is given as -8% and the Z score turned out to be 1.46.
On to `CCN(CC)CCC[C@H](C)NC(=O)c1ccc(-c2cc(-c3ccc(N4CCCCC4)cc3)[nH]n2)cc1`, for which the “% Inhibition” value is reported as 0% and the Z score was found to be 0.05.
Regarding `Cc1cccc(-c2nc(CN3CCC(C(=O)N4CCC(Cc5nc(C6CCOCC6)no5)CC4)CC3)c(C)o2)c1`, the “% Inhibition” value is recorded as -7% and the Z score was found to be 1.47.
As for `CN1CCN([C@H]2CCN(C(=O)c3ccc(-c4cncnc4)cc3)C2)CC1`, the “% Inhibition” value was 2% and the Z score is listed as -0.42.
For the molecule `Cn1cc(CC(=O)N2CC(Nc3ncccn3)C2)c2ccccc21`, the “% Inhibition” value came to 6% and the Z score is -1.09.
Consider `CN1CCN(C2COCC2Nc2nccc3ccccc23)CC1` (centres undefined), for which the “% Inhibition” value is given as -4% and the Z score was determined as 0.78.
On to `Cc1cc(F)ccc1N1CCC(NCCCNc2cccnc2)CC1`, for which the “% Inhibition” value is 31% and the Z score was -6.15.
On to `Cc1ccc2[nH]cc(CN(C)Cc3cn(C)nc3-c3ccccc3F)c2c1`, for which the “% Inhibition” value is on record as 1% and the Z score is -0.22.
The matching figures for `O=C1OCCCN1CCNc1nccc(N2CCNC3CS(=O)(=O)CC32)n1` (centres undefined): -3% and 0.57.
In the case of `CN(C)C1CCN(CCNC(=O)c2cccc(-c3cnco3)c2)CC1`, the “% Inhibition” value is listed as -5% and the Z score came out at 0.78.
On the same counts, the results for `Cc1nccn1CC(=O)N1CCC2(CC1)CN(CC1=CCCCC1)CCO2` are -13% and 2.02.
Regarding `Cc1cc(O)c(Cl)cc1-c1ncnc2[nH]ccc12`, the “% Inhibition” value amounted to 1% and the Z score was -0.29.
Take `c1ccc(-c2ccnc(C3CCN(CC45CNCC4C5)CC3)n2)cc1` (centres undefined): the “% Inhibition” value stood at 89% and the Z score was -13.57.
The matching figures for `O=C(C1CCCN1C(=O)C1CCCC1)N1CCC(Nc2ccc3nccn3n2)C1` (centres undefined): -8% and 1.24.
Consider `CC1(Cc2noc([C@H]3CC(=O)N(CCN4CCOCC4)C3)n2)CCCC1`, for which the “% Inhibition” value is reported as -8% and the Z score is given as 1.26.
With `CCc1c[nH]c2ncnc(Nc3ccc(OC)c(S(C)(=O)=O)c3)c12`, the “% Inhibition” value turned out to be 1% and the Z score is listed as -0.1.
In the case of `CC(CN1CCCCCC1)N1C[C@H]2C[C@H](O)[C@H](O)C[C@H]2C1` (some centres undefined), the “% Inhibition” value is reported as -1% and the Z score is listed as 0.11.
As to `CCn1nc(CN2CCC[C@H](COC)CC2)c2ccccc21`, the “% Inhibition” value turned out to be 5% and the Z score is listed as -0.79.
Consider `CN(C)C[C@H](O)Cn1cc(NC(=O)c2cc3ccc(Cl)cc3[nH]2)cn1`, for which the “% Inhibition” value is on record as 10% and the Z score is given as -1.71.
Take `O=C(c1ccc(-c2cn[nH]c2)cc1)N1CC(NC2CCOCC2)C1`: the “% Inhibition” value is given as -6% and the Z score turned out to be 1.21.
Take `Cc1cccc2[nH]c(CNc3ncnc4c3c(C)nn4C)nc12`: the “% Inhibition” value is -2% and the Z score turned out to be 0.41.
As for `O=C(NCCc1ccc2[nH]ccc2c1)N1CCC(N2CCc3cc(F)ccc32)CC1`, the “% Inhibition” value was -2% and the Z score came out at 0.4.
For `Cn1ncc2cc(-c3cccc(C(=O)N4CCC[C@H](C(N)=O)C4)c3)ccc21`, the “% Inhibition” value is given as -17% and the Z score is on record as 3.65.
With `c1ccc2[nH]c(CNCc3cc(CN4CCCCC4)cs3)cc2c1`, the “% Inhibition” value is 2% and the Z score was -0.29.
Turning to `CCCCOCCOCCNc1ncnc2oc(-c3ccccc3)cc12`, the “% Inhibition” value is listed as -3% and the Z score turned out to be 0.51.
As to `OC[C@H]1CCCN(CCNCc2ccc3ccn(Cc4ccccc4)c3c2)C1`, the “% Inhibition” value stood at 1% and the Z score is -0.24.
Consider `O=C(NCCNS(=O)(=O)c1cccs1)[C@H]1CC12CCS(=O)(=O)CC2`, for which the “% Inhibition” value worked out at 2% and the Z score is given as -0.34.
As to `CC(NCCC(=O)N1CCN(C)CC1)C1CCCN(C2CCC2)C1` (centres undefined), the “% Inhibition” value is on record as -4% and the Z score was 0.78.
On the same counts, the results for `N#Cc1c(-c2cccc(CN3CCOCC3)c2)cc(-c2ccc[nH]2)nc1N` are 9% and -1.5.
Take `CCCc1cc(C(=O)N[C@@H](C(=O)O)c2ccc(F)cc2)[nH]n1`: the “% Inhibition” value is reported as 4% and the Z score is -0.82.
As for `Cc1ccncc1CC(=O)NCC1(O)CCN(C(=O)Cc2cnccc2C)CC1`, the “% Inhibition” value is -12% and the Z score is 1.85.
As to `O=C1C[C@H](CN2CCC(N3CCN(CCO)CC3)CC2)CN1c1ccccc1`, the “% Inhibition” value is recorded as -8% and the Z score is 1.62.
The matching figures for `c1ccc(-c2nc3c(c(NC[C@@H]4OCCc5ccccc54)n2)CCNCC3)nc1`: 0% and -0.09.
For `C[C@]1(NC(=O)Nc2c(F)cccc2F)CCOC1=O`, the “% Inhibition” value is listed as -7% and the Z score was 1.02.
For `Nc1ccc(-c2ccc(C(=O)NC3CCN(Cc4ccco4)CC3)cc2)cn1`, the “% Inhibition” value is -9% and the Z score is listed as 1.5.
For `Cc1cc(NC[C@H]2CC(=O)N(C3CCCC3)C2)c2ccccc2n1`, the “% Inhibition” value came out at 3% and the Z score is reported as -0.45.
The matching figures for `Cc1cc(N2CCN(CC(O)c3ccccc3)C(C)C2)nc(N)n1` (centres undefined): 8% and -1.8.
Turning to `CC(C)c1noc(CCNc2nc(-c3cccnc3)nc3c2CCNC3)n1`, the “% Inhibition” value came to 3% and the Z score is -0.53.

For orientation: % Inhibition means the drop in the measured response relative to a control, in per cent.
